{"source": "paper PMC4336329", "about": "(PLoS ONE, 2015)", "note": "About 2,200 (0.71%) of roughly 310,000 compounds showed an effect of 50% or more. The effect is printed as a negative number. Some of the results follow."}
{"target": "human ether-à-go-go-related gene (hERG) potassium channel (human, UniProt Q12809)", "sequence (Q12809 whole entry, looked up)": "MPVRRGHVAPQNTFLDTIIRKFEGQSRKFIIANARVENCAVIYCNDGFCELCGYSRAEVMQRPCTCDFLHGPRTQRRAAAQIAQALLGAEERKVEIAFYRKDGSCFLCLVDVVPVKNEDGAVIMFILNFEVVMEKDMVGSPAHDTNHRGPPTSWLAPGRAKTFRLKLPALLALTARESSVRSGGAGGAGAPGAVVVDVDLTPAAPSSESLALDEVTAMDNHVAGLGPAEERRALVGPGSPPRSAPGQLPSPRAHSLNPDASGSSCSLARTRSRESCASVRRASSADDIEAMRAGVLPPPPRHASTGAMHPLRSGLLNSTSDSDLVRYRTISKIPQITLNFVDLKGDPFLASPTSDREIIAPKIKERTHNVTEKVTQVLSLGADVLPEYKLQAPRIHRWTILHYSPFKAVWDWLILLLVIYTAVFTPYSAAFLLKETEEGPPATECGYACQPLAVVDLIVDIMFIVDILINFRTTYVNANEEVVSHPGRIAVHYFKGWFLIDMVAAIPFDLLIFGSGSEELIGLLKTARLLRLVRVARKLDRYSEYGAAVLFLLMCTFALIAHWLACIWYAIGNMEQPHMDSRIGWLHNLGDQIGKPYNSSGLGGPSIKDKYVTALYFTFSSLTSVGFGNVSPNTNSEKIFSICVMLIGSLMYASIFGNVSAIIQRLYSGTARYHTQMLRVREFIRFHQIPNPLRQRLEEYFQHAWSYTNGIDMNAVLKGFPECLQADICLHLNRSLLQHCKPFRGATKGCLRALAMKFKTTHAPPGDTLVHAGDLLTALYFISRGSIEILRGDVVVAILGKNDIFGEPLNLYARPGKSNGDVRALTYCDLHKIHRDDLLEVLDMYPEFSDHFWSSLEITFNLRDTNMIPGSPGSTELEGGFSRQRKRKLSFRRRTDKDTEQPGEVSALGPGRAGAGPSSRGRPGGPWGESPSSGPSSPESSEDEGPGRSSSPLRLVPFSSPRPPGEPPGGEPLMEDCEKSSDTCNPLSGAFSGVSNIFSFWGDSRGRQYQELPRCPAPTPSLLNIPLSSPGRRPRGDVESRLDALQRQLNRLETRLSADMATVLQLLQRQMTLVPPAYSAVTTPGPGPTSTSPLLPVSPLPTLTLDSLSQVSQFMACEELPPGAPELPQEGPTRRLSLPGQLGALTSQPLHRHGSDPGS", "assay": "primary screen, population patch clamp on CHO cells stably expressing hERG", "units": {"hERG current change (%, negative = inhibition) at 1uM": "%"}}
{"compound": "CC(NC(=O)Cc1ccccc1)c1ccc(F)cc1", "note": "(stereo not shown)", "hERG current change (%, negative = inhibition) at 1uM": 26}
{"compound": "COc1ccc(C(=O)NNC(=O)CSc2ccccc2)cc1", "hERG current change (%, negative = inhibition) at 1uM": 11}
{"compound": "CCCc1cc(=O)oc2c(CN3CCN(C)CC3)c(O)c(Cl)cc12", "hERG current change (%, negative = inhibition) at 1uM": 6.53}
{"compound": "Cc1cc(=O)n2[nH]c(Nc3cccc(Cl)c3)nc2n1", "hERG current change (%, negative = inhibition) at 1uM": 17.6}
{"compound": "O=C(Cc1ccc(-c2ccccc2)cc1)N1CCOCC1", "hERG current change (%, negative = inhibition) at 1uM": 7.08}
{"compound": "O=C(CSc1nnc(CNC(=O)c2ccc(F)cc2)o1)Nc1nccs1", "hERG current change (%, negative = inhibition) at 1uM": 13.2}
{"compound": "COc1ccccc1CN1CCCCC1c1cccnc1", "note": "(stereo not shown)", "hERG current change (%, negative = inhibition) at 1uM": 0.665}
{"compound": "c1coc(C2=Nc3cccc4cccc(c34)N2)c1", "hERG current change (%, negative = inhibition) at 1uM": 12}
{"compound": "CCOCCCNC(=O)C1CCN(S(=O)(=O)CC)CC1", "hERG current change (%, negative = inhibition) at 1uM": 6.21}
{"compound": "Cc1nn(-c2ccccc2)c(C)c1NC(=O)COC(=O)c1ccc(Cl)c(S(N)(=O)=O)c1", "hERG current change (%, negative = inhibition) at 1uM": 1.42}
{"compound": "O=C(COC(=O)/C=C/c1cccs1)NC1CC1", "hERG current change (%, negative = inhibition) at 1uM": 7.72}
{"compound": "O=C(CSc1nnc(-c2ccco2)n1CC1CCCO1)NC1CCCC1", "note": "(stereo not shown)", "hERG current change (%, negative = inhibition) at 1uM": 4.72}
{"compound": "Cc1ccc(OCC(O)Cn2c(N3CCOCC3)nc3c2c(=O)[nH]c(=O)n3C)cc1", "note": "(stereo not shown)", "hERG current change (%, negative = inhibition) at 1uM": 6.77}
{"compound": "CSc1ccccc1OCc1cc(C(=O)NCCCn2nc(C)cc2C)no1", "hERG current change (%, negative = inhibition) at 1uM": -3.19}
{"compound": "CNC(=O)c1ccsc1NC(=O)c1ccc2c(c1)CCCC2", "hERG current change (%, negative = inhibition) at 1uM": 2.22}
{"compound": "CCCC1CCC(=NNS(=O)(=O)c2ccc(C)c([N+](=O)[O-])c2)CC1", "note": "(stereo not shown)", "hERG current change (%, negative = inhibition) at 1uM": 15.5}
{"compound": "C=CCNc1nc(N)c([N+](=O)[O-])c(Nc2cccc(Cl)c2)n1", "hERG current change (%, negative = inhibition) at 1uM": 6.59}
{"compound": "Cc1nonc1OCCNc1ccc([N+](=O)[O-])c2cccnc12", "hERG current change (%, negative = inhibition) at 1uM": 9.85}
{"compound": "CCOC(=O)c1cc(C#N)c(N2CCCCC2)nc1-c1ccccc1", "hERG current change (%, negative = inhibition) at 1uM": 9.34}
{"compound": "CCS(=O)(=O)Nc1cc2c3c(c1)CCC(=O)N3CCC2", "hERG current change (%, negative = inhibition) at 1uM": 20.4}
{"compound": "Cc1cc(NC(=O)Nc2cccc(C(F)(F)F)c2)n(C)n1", "hERG current change (%, negative = inhibition) at 1uM": 5.49}
{"compound": "COc1cccc(N2CCN(C(=O)c3ccc4nc[nH]c4c3)CC2)c1", "hERG current change (%, negative = inhibition) at 1uM": 11}
{"compound": "CN1C(=O)C(=O)/C(=C(/O)c2ccccc2)C1c1ccccc1", "note": "(stereo not shown)", "hERG current change (%, negative = inhibition) at 1uM": 15}
{"compound": "Cc1c(NC(=O)COC(=O)c2cc3c4ccccc4n(C)c3s2)c(=O)n(-c2ccccc2)n1C", "hERG current change (%, negative = inhibition) at 1uM": 17.3}
{"compound": "N/C(=N\\OC(=O)/C=C/c1ccccc1)c1cccnc1", "hERG current change (%, negative = inhibition) at 1uM": 7.56}
{"compound": "N#Cc1ccc(C(=O)OCC(=O)Nc2ccc(N3CCOCC3)cc2)cc1", "hERG current change (%, negative = inhibition) at 1uM": 8.85}
{"compound": "CCCN(C(=O)CCOc1ccc(C(C)(C)C)cc1)c1c(N)n(Cc2ccccc2)c(=O)[nH]c1=O", "hERG current change (%, negative = inhibition) at 1uM": 18}
{"compound": "Cn1c(=O)c2c(SCC(=O)NCc3ccco3)nc(-c3ccccc3Cl)nc2n(C)c1=O", "hERG current change (%, negative = inhibition) at 1uM": 9.32}
{"compound": "O=C(COC(=O)Cc1ccccc1F)Nc1ccc2c(c1)OCO2", "hERG current change (%, negative = inhibition) at 1uM": 10.2}
{"compound": "COc1ccccc1C(=O)Nc1ccc(NC(=O)c2ccco2)c(C)c1", "hERG current change (%, negative = inhibition) at 1uM": 12.8}
{"compound": "COc1cccc(/C=C/C(=O)OCC(=O)NCc2ccc(Cl)cc2)c1", "hERG current change (%, negative = inhibition) at 1uM": 13.1}
{"compound": "COc1ccc(NC(=O)CC2SC(=Nc3ccccc3)NC2=O)cc1", "note": "(stereo not shown)", "hERG current change (%, negative = inhibition) at 1uM": 4.81}
{"compound": "Cc1ccc2c(NC(=O)c3ccc(Br)o3)cccc2n1", "hERG current change (%, negative = inhibition) at 1uM": 10.9}
{"compound": "CCOC(=O)c1ccc(NC(=S)N2CCCC(C(=O)OCC)C2)cc1", "note": "(stereo not shown)", "hERG current change (%, negative = inhibition) at 1uM": 7.55}
{"compound": "CCCc1cc(=O)oc2cc(OCC(=O)NCC(O)c3ccccc3)ccc12", "note": "(stereo not shown)", "hERG current change (%, negative = inhibition) at 1uM": 21.5}
{"compound": "COc1ccc([N+](=O)[O-])cc1NC(=O)c1cncc(Br)c1", "hERG current change (%, negative = inhibition) at 1uM": 3.96}
{"compound": "Cc1ccccc1NC(=O)C1=CC=CN2CCS(=O)(=O)N=C12", "hERG current change (%, negative = inhibition) at 1uM": 6.16}
{"compound": "CCOc1cc(N2C(=O)CC3CS(=O)(=O)CC32)c(OCC)cc1NC(=O)c1ccccc1", "note": "(stereo not shown)", "hERG current change (%, negative = inhibition) at 1uM": 7.45}
{"compound": "CCOc1ccc(-n2c(CC)nc3ccccc3c2=O)cc1", "hERG current change (%, negative = inhibition) at 1uM": 14.1}
{"compound": "Cc1c2cnn(CC(=O)NCCN3CCOCC3)c(=O)c2c(C)n1Cc1ccc(F)cc1", "hERG current change (%, negative = inhibition) at 1uM": 11.9}
{"compound": "CCOc1ccccc1NC(=O)c1cc(S(=O)(=O)N2CCC3(CC2)OCCO3)ccc1F", "hERG current change (%, negative = inhibition) at 1uM": -3.87}
{"compound": "CC1c2ccsc2CCN1S(=O)(=O)c1cccs1", "note": "(stereo not shown)", "hERG current change (%, negative = inhibition) at 1uM": 5.14}
{"compound": "CCN1CCN(CCNC(=O)c2ccc(/C=C3/Sc4ccccc4N(Cc4cccc(Cl)c4)C3=O)cc2)CC1", "hERG current change (%, negative = inhibition) at 1uM": 10.3}
